Screen size: about 410,000 compounds; about 5,000 (1.2%) were called active. The inconclusive results got no clear call from the source; some entries with a clear call stand among them for comparison. Calls come from the whole dose curve; as a rule, active = well fitted inhibition curve with a large enough effect; inconclusive = small, poorly fitted or top-dose-only effect; inactive = no such curve, though single readings can be large or run the other way. Potencies of inconclusive entries are doubtful fits and often do not repeat.
Assay: qHTS for Inhibitors of TGF-b; note: nearly all actives have a fitted effect of over 65% in size
Details: HepG2 CAGA-GFP TGF-b/SMAD3 reporter, GFP fluorescence, 18 h, TGF-beta stimulated, 500 pg/mL final; series mostly up to 46.1 µM; activity, negative = inhibition: at the top concentration
In short: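 Inhibition was scored as loss of TGF-beta-induced (500 pg/mL final, 18 hours, 37 degrees C) GFP in HEPG2 cells carrying a CAGA-GFP reporter, in DMEM with 1% FBS. Well GFP was summed per cell; Activity was normalised to unstimulated and stimulated DMSO wells, then concentration-response fitting.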
% is set by controls: 0 for no effect and ±100 for the full control effect; potency is the fitted concentration of half-maximal effect; tags give direction and shape of the fitted curve.

Row | SMILES | Potency | activity, negative = inhibition
1 | Cc1ccc(SCCC(=O)OC(C)C(=O)Nc2ccccc2)cc1 (stereo not given) | inconclusive: 15.8 µM [inhibitor, single point] | –
2 | O=C(CS(=O)(=O)Cc1ccccc1)N1CCN(C(=O)c2ccco2)CC1 | inconclusive: 35.5 µM [inhibitor, single point] | –
3 | CCN(CC)C(=O)Cn1c(=O)n(CCc2ccccc2)c(=O)c2ccccc21 | – | inactive: 25.8%
4 | COc1ccccc1N1CCN(Cc2nc(N)nc(Nc3ccc(C)c(Cl)c3)n2)CC1 | inconclusive: 11.2 µM [inhibitor, partial curve, poor fit] | –
5 | COc1cccc(N2CCN(c3ncnc4c3c(-c3ccccc3)cn4-c3cccc(C(F)(F)F)c3)CC2)c1 | inconclusive: 11.2 µM [inhibitor, partial curve, poor fit] | –
6 | O=C(CNC(=O)c1cccc(F)c1)N/N=C/c1ccc([N+](=O)[O-])s1 | inconclusive: 22.4 µM [inhibitor, single point] | –
7 | Cc1cc(Nc2ccc(Br)c(C)c2)n2nc(-c3ccco3)nc2n1 | inconclusive: 10 µM [inhibitor, partial curve] | –
8 | COc1ccc(N2CCN(C(CNC(=O)c3ccco3)c3cccnc3)CC2)cc1 (stereo not given) | inconclusive: 0.355 µM [inhibitor, full curve, poor fit] | –
9 | O=c1c2ccccc2oc2cc(C#Cc3ccccn3)ccc12 | inconclusive: 5.62 µM [inhibitor, full curve, poor fit] | –
10 | Cc1cc(C)n(-c2nc(C)c(C)c(=O)n2CC(=O)Nc2cccc([N+](=O)[O-])c2)n1 | – | inactive: 15.4%
11 | C#CCOCCOCCOCCNc1nc(N2CCN(C(=O)CCCCCCCCCCNC(=O)[C@H](CCCCN)n3cc(CCO)nn3)CC2)nc(N2CCN(C(=O)CCCCCCCCCCNC(=O)[C@H](CCCN=C(N)N)n3cc(C[C@@H](C)CC)nn3)CC2)n1 | inconclusive: 17.8 µM [inhibitor, single point] | –
12 | C=C1CCN(Cc2ccccc2)S(=O)(=O)c2ccccc21 | inactive | –
13 | CCOc1ccc(S(=O)(=O)N2CCC(c3ccncc3)CC2)cc1 | inconclusive: 7.94 µM [inhibitor, partial curve] | –
14 | Cc1cc2nc(CCN(C(=S)NCC3CCCO3)C3CCCC3)[nH]c2cc1C (stereo not given) | inconclusive: 11.2 µM [inhibitor, partial curve, poor fit] | –
15 | Cc1ccc(NC2=NC(c3ccc(C)cc3)n3c(nc(C)cc3=O)N2)cc1 (stereo not given) | inconclusive: 0.112 µM [inhibitor, full curve, poor fit] | –
16 | O=C(CN(c1ccc(Cl)cc1)S(=O)(=O)c1ccc(Cl)c([N+](=O)[O-])c1)NCCc1ccccc1 | – | inactive: -17.8%
17 | c1ccc(-c2cc3c(NCC4COc5ccccc5O4)ncnc3s2)cc1 (stereo not given) | inconclusive: 20 µM [inhibitor, partial curve, poor fit] | –
18 | CC(=O)Nc1cccc(NC(=O)CSc2ccc(-c3sc(-c4ccccc4)nc3C)nn2)c1 | inconclusive: 6.31 µM [inhibitor, full curve] | –
19 | COc1ccc(C2SCC(=O)N2c2nnc(C34CC5CC(CC(C5)C3)C4)s2)cc1 (stereo not given) | – | inactive: -3.95%
20 | COc1cc2ccccc2cc1C(=O)N(CCN(C)C)c1nc2c(OC)ccc(OC)c2s1 | inconclusive: 22.4 µM [inhibitor, single point] | –

Row | SMILES | Potency | activity, negative = inhibition
21 | Cc1ccc(-n2nc(-c3ccccc3)c3cnc4cc5c(cc4c32)OCO5)cc1C | – | inactive: 5.46%
22 | CC1(C(=O)NCc2cccc3ccccc23)CCN1C(=O)Cc1ccc(-c2ccccc2)cc1 (stereo not given) | inconclusive: 35.5 µM [inhibitor, single point] | –
23 | COC(=O)c1ccc(-c2ccc([C@H]3[C@H]4C=CC[C@@H](C)[C@@H]4C(=O)N3Cc3ccccc3)c(F)c2)cc1 | inconclusive: 8.91 µM [inhibitor, single point] | –
24 | CCCCSc1nnc([C@H](C)NC(=O)OC(C)(C)C)o1 | – | inactive: 0.845%
25 | Cc1csc(SCC(=O)Nc2sccc2C(N)=O)n1 | – | inactive: -5.1%
26 | Cc1cc2nc(-c3cccc(Br)c3)c(CC(C)(C)C)n2c(C)c1Br | inconclusive: 2 µM [inhibitor, partial curve, poor fit] | –
27 | Cc1cccc(Nc2nnc(-c3ccc(C)c(S(=O)(=O)N4CCN(C)CC4)c3)c3ccccc23)c1 | inconclusive: 3.98 µM [inhibitor, full curve, poor fit] | –
28 | Cc1nn2c(=O)cc(COC(=O)c3cccc(NC(=O)c4ccc(F)cc4)c3)nc2s1 | inconclusive: 35.5 µM [inhibitor, single point] | –
29 | Cc1ccc(Cl)cc1NC(=O)Cn1c(=O)n(C(C)C)c(=O)c2oc3ccccc3c21 | – | inactive: -15.1%
30 | COC(=O)Cc1cc(=O)n2[nH]cnc2n1 | inconclusive: 35.5 µM [inhibitor, single point] | –
31 | NC(=S)N/N=C/c1c(O)c(Br)cc2oc3c(c12)CCCC3 | inconclusive: 2.24 µM [inhibitor, partial curve, poor fit] | –
32 | Cc1[nH]c2ccccc2c1NC(=O)CN1CCN(c2cccc(C(F)(F)F)c2)CC1 | inconclusive: 22.4 µM [inhibitor, single point] | –
33 | CN1/C(=C\C(=O)COC(=O)c2nccnc2N)C(C)(C)c2ccccc21 | – | inactive: 0.625%
34 | CCOC(=O)c1c(CN2CCOCC2)n(-c2ccccc2)c2cc(Br)c(OC)cc12 | inconclusive: 35.5 µM [inhibitor, single point] | –
35 | Cc1ccc(C)c(OCC(=O)Nc2ccc(C(=O)O)cc2NC(=O)COc2cc(C)ccc2C)c1 | – | inactive: 0%
36 | COc1ccc(OC)c(NC(=O)CC(=O)Nc2ccc3nc4n(c(=O)c3c2)CCCCC4)c1 | inconclusive: 0.112 µM [inhibitor, full curve, poor fit] | –
37 | COc1ccc(S(=O)(=O)N(C)CC(=O)N2CCCCC2)cc1Cl | inconclusive: 35.5 µM [inhibitor, single point] | –
38 | C=CCNC(=O)C1CCC(CNc2nc(=S)[nH]c3ccccc23)CC1 (stereo not given) | – | inactive: 1.99%
39 | Cc1cccc(NC(=O)N2CCC(CN3CCCCCC3)CC2)c1C | – | inactive: -0.108%
40 | COc1cc(-c2nc(-c3ccc(NC(=O)c4ccc5c(c4)OCO5)cc3)no2)cc(OC)c1OC | inconclusive: 17.8 µM [inhibitor, single point] | –
